According to ChEMBL document CHEMBL4229566, “Discovery of ( S)-3-(3-(3,5-Dimethyl-1 H-pyrazol-1-yl)phenyl)-4-(( R)-3-(2-(5,6,7,8-tetrahydro-1,8-naphthyridin-2-yl)ethyl)pyrrolidin-1-yl)butanoic Acid, a Nonpeptidic αvβ6 Integrin Inhibitor for the Inhaled Treatment of Idiopathic Pulmonary Fibrosis” (J Med Chem, 2018):

Columns and labels:
[1] = physchem; settings: buffer, pH 7.4, logD
[2] = in vitro; settings: dog, MDCK-MDR1
[3] = Protein binding in rat plasma at 1 ug/ml after 4 hrs by rapid equilibrium dialysis and LC-MS/MS analysis; assay type: ADME, cell-free; settings: at 1 µg/mL, read-out: PPB (converted)
[4] = physchem; settings: buffer, pH 4
[5] = physchem; settings: buffer, pH 6.9
[6] = physchem; settings: buffer, pH 6.6
[7] = physchem; settings: buffer, pH 7
[8] = physchem; settings: buffer, pH 7.5

Question: For O=C(O)C[C@@H](CN1CC[C@@H](CCc2ccc3c(n2)NCCC3)C1)c1cccc(C2CC2)c1, which logD [1] is on record?
Answer: 3.21

Question: Which logD [1] does the source give for O=C(O)C[C@H](CN1CC[C@@H](CCc2ccc3c(n2)NCCC3)C1)c1cccc(C2CC2)c1 here?
Answer: 3.34

Question: Which logD [1] does the source give for O=C(O)C[C@H](CN1CC[C@@H](CCc2ccc3c(n2)NCCC3)C1)c1cccc(OC2CCOCC2)c1 here?
Answer: 2.75

Question: For Cc1ccnn1-c1cccc([C@H](CC(=O)O)CN2CC[C@@H](CCc3ccc4c(n3)NCCC4)C2)c1, which logD [1] is on record?
Answer: 2.55

Question: Which results are given for Cc1cc(C)n(-c2cccc([C@H](CC(=O)O)CN3CC[C@@H](CCc4ccc5c(n4)NCCC5)C3)c2)n1 [GSK-3008348 FREE BASE]?
Answer: Papp A→B at 1 h, 3 µM [2]: 2 ×10⁻⁶ cm/s; fraction unbound at 4 h, 1 ug/ml [3]: 0.282

Question: Which results are given for Cc1cc(C)n(-c2cccc([C@H](CC(=O)O)CN3CC[C@@H](CCc4ccc5c(n4)NCCC5)C3)c2)n1.Cl [GSK-3008348]?
Answer: solubility [4]: > 55 mg/mL; solubility [5]: > 34 mg/mL; solubility [6]: > 55 mg/mL; solubility [7]: > 71 mg/mL; solubility [8]: 31 mg/mL
